# Where a name gives a salt, the structure may show the parent alone.
# Legend:
# [1] = system: rat diabetic aorta-spiral; test: noradrenaline dose-effect curve on aorta-spiral of diabetic (Streptosotocine treated) rats, selective β-blocking activity
# in vivo = details: mouse, iv, mice
# rat normal aorta-spiral = test: noradrenaline dose-effect curve on normal (control) rat aorta-spiral
# [2] = system: rat uterus pretreated with Streptosotocine; test: rat uterus pretreated with Streptosotocine; details: 100 γ/ml.
# hypoxia survival time = details: in vivo
# mice = details: mouse, in vivo
# [3] = system: uterus of the untreated rat; test: uterus preparation of the untreated rat
# rat gastric fundus = test: isolated strips of rat gastric fundus not pretreated (isoprenaline dose-effect curve); details: summary of the gastric fundus tests
# [4] = system: diabetic macro- and microangiopathy in CFY strain rats; test: development of diabetic macro- and microangiopathy in latent diabetic CFY rats; format: in vivo, rat
# guinea pig trachea = test: β-blocking activity on trachea preparation (antagonism of isoprenaline)
# [5] = system: isoprenaline induced tachycardia; test: isoprenaline induced tachycardia, heart frequency; format: in vivo
# Method: 5 minutes after the administration of a 10 mg./kg. i.v. dose the heart frequency increased by 10%, and 5 minutes after the administration of a 100 mg./kg. i.v. dose it decreased by 3%.
# [6] = system: rat gastric fundus treated with Streptosotocine; test: isolated strips of gastric fundus of rat treated with Streptosotocine
# cat papillary muscle = test: β-blocking activity on cat papillary muscle
# Description: The compounds of the formula I have been evaluated as general β-blockers by assay using trachearing preparations [J. Pharmacol. Exp. Therap., 90, 104 (1974)] and papillary muscles of cats.
# [7] = treated at weight of 200 g., until 500 g., CFY rats
compound,measurement,setting,value
"CN(CCO)CC(O)CON=C(N)CC(c1ccccc1)c1ccccc1 (centres unmarked) [Example 16, O-[3-N-methyl-N-(2-hydroxy-ethyl)-amino-2-hydroxy-1-propyl]-3,3-diphenyl-propionamide dihydrochloride]",β-blocking activity on diabetic test (diabetic aorta spiral),[1],strong β-blocking activity
same,LD50,in vivo,37 mg/kg
"NC(=NOCC(O)CN1CCCCC1)c1ccc(Cl)cc1 (centres unmarked) [Example 10, O-(3-piperidino-2-hydroxy-1-propyl)-4-chloro-benzamidoxime dihydrochloride]",β-blocking activity on normal test,rat normal aorta-spiral,slight β-blocking activity
same,β-blocking activity on diabetic test (diabetic aorta spiral),[1],strong β-blocking activity
"COc1ccc(CC(N)=NOCC(O)CN2CCCCC2)cc1OC (centres unmarked) [Example 2, O-(3-piperidino-2-hydroxy-1-propyl)-3,4-dimethoxyphenyl-acetamidoxime dihydrochloride]",effect on rat uterus pretreated with Streptosotocine,[2],no effect
same,extension of hypoxia survival time,hypoxia survival time,extended with one order of magnitude
same,"influence on the effect of isoprenaline on blood pressure, heart frequency, minute volume and dp/dt",anesthetized cats; anesthetized cats,did not influence the effect of isoprenaline
same,dose causing bradycardia and dp/dt decrease,"anesthetized cats; cat, in vivo",100 µg/kg
same,"effect on blood pressure, heart frequency, minute volume and dp/dt",anesthetized cats; in vivo,did not show any significant effect
same,"inderal dose with similar effect (bradycardia, dp/dt decrease)",anesthetized cats; in vivo,~0.5 µg/kg
same,mean of the differences of the pD2-values on normal (control) aorta-spiral,"rat normal aorta-spiral; noradrenaline, normal rat, Example 2: average of five tests",0.52
same,influence on the hanging of mice on a rotating rod,mice,"Neither the compound ""NP-18"" nor the compound ""NP-51"" had any influence"
same,effect on uterus preparation of untreated rat,"[3]; 50 γ/ml., stopped by noradrenaline",set in motion the uterus preparat
same,concentration of inderale with identical effect (untreated rat uterus),[3]; test compound at 50 γ/ml.,0.5 µg/mL
same,β-blocking effect on normal tests,rat gastric fundus,slight effect
same,final histological changes,[4]; initial receptor transformations inhibited,do not occur
same,degree of macroangiopathy,[4]; [7],considerably smaller
same,development of microangiopathy,[4]; [7],did not develop
same,inhibition of the effect of isoprenaline on guinea pig trachea,guinea pig trachea,inhibited the effect of isoprenaline
same,β-blocking activity on trachea-spiral,guinea pig trachea,slight β-blocking activity
same,decrease of the effect of 0.01 γ/ml. isoprenaline,"guinea pig trachea; 10γ of test substance, guinea pig trachea",half of its original level
same,effect smaller than that of inderal on guinea pig trachea,guinea pig trachea; versus inderal,4 orders of magnitude
same,inhibition at the aorta spiral of a diabetic animal,[1],inhibition of one order of magnitude
same,mean of the differences of the pD2-values on diabetic aorta-spiral,"[1]; noradrenaline, Streptosotocine-diabetic rat, Example 2: average of five tests",1.31
same,increase of heart frequency,[5]; 5 minutes after 10 mg./kg. i.v.,10%
same,decrease of heart frequency,[5]; 5 minutes after 100 mg./kg. i.v.,3%
same,influence on isoprenaline induced tachycardia,[5]; i.v.,slightly influenced
same,effect on gastric fundus of Streptosotocine treated rat,[6]; 10 γ/ml.,no effect
same,β-blocking effect on diabetic samples,[6]; summary of the gastric fundus tests,strong β-blocking effect
same,β-blocking activity on papillary muscle,cat papillary muscle,slight β-blocking activity
same,concentration of inderal with identical effect on papillary muscle,cat papillary muscle; test compound at 100 μg./ml.,0.05 µg/mL
same,LD50,in vivo,165 mg/kg
"NC(=NOCC(O)CN1CCCCC1)c1ccccc1 (centres unmarked) [Example 1, O-(3-piperidino-2-hydroxy-1-propyl)-benzamidoxime]",α-blocking activity on normal objects/aortas,rat normal aorta-spiral,slight α-blocking activity
same,β-blocking activity on diabetic test (diabetic aorta spiral),[1],strong β-blocking activity
same,LD50,in vivo,70.5 mg/kg
"CC(C)NCC(O)COc1cccc2ccccc12 (centres unmarked) [inderal, 1-isopropylamino-3-(1-naphthyloxy)-propane-2-ol, reference compound]",effect on noradrenaline induced contractions of non-diabetic preparates,rat normal aorta-spiral; non-diabetic aorta-spiral,no effect
"CC(C)NCC(O)CON=C(N)CC(c1ccccc1)c1ccccc1 (centres unmarked) [Example 14, O-(3-isopropylamino-2-hydroxy-1-propyl)-3,3-diphenyl-propionamidoxime dihydrochloride]",β-blocking activity on diabetic test (diabetic aorta spiral),[1],strong β-blocking effect
same,LD50,in vivo,16.2 mg/kg
